# Reference: the supplement of paper PMC8728848
# The other results are listed elsewhere or left out.
# Legend:
# Assay in all cases: glycan array binding signal (z-score within array); higher = stronger binding
# Details in all cases: glycan notation: IUPAC condensed, linker removed; mutation: D151N
# [1] = molecular target: HexA(a1-3)GalNAc4S(b1-4)GlcA(b1-3)GalNAc4S(b1-4)GlcA(b1-3)GalNAc4S(b1-4)GlcA(b1-3)GalNAc4S(b1-4)GlcA(b1-3)GalNAc4S(b1-4)GlcA(b1-3)GalNAc4S(b1-4)GlcA(b1-3)GalNAc4S(b1-4)GlcA(b1-3)GalNAc4S
# In short: (§1)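 Glycan array data were curated from 3228 arrays in the Consortium for Functional Glycomics database and kept only where the protein sequence was available. Glycan names were converted to IUPAC-condensed notation, and columns mapping to the same glycan were averaged. The binding signal is a within-array Z-score, averaged across arrays of the same protein sequence at different concentrations or buffers and across linkers. Negative Z-scores can be read as non-binding.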
# [2] = molecular target: HexA(a1-3)GalNAc4S(b1-4)IdoA(a1-3)GalNAc4S(b1-4)IdoA(a1-3)GalNAc4S(b1-4)IdoA(a1-3)GalNAc4S(b1-4)IdoA(a1-3)GalNAc4S(b1-4)IdoA(a1-3)GalNAc4S(b1-4)IdoA(a1-3)GalNAc4S(b1-4)IdoA(a1-3)GalNAc4S
# In short: as §1
# [3] = molecular target: HexA(a1-3)GalNAc6S(b1-4)GlcA(b1-3)GalNAc6S(b1-4)GlcA(b1-3)GalNAc6S(b1-4)GlcA(b1-3)GalNAc6S(b1-4)GlcA(b1-3)GalNAc6S(b1-4)GlcA(b1-3)GalNAc6S(b1-4)GlcA(b1-3)GalNAc6S(b1-4)GlcA(b1-3)GalNAc6S
# In short: as §1
# [4] = molecular target: HexA2S(a1-4)GlcNS6S(a1-4)IdoA2S(a1-4)GlcNS6S(a1-4)IdoA2S(a1-4)GlcNS6S(a1-4)IdoA2S(a1-4)GlcNS6S(a1-4)IdoA2S(a1-4)GlcNS6S(a1-4)IdoA2S(a1-4)GlcNS6S(a1-4)IdoA2S(a1-4)GlcNS6S(a1-4)IdoA2S(a1-4)GlcNS6S(a1-4)IdoA2S
# In short: as §1
# [5] = molecular target: Man(a1-2)Man
# In short: as §1
# [6] = molecular target: Man(a1-2)Man(a1-2)Man(a1-3)[Man(a1-2)Man(a1-3)[Man(a1-2)Man(a1-6)]Man(a1-6)]Man(b1-4)GlcNAc(b1-4)GlcNAc
# In short: as §1
# [7] = molecular target: Man(a1-2)Man(a1-2)Man(a1-3)[Man(a1-2)Man(a1-6)[Man(a1-3)]Man(a1-6)]Man(b1-4)GlcNAc(b1-4)GlcNAc
# In short: as §1
# [8] = molecular target: Man(a1-2)Man(a1-2)Man(a1-3)[Man(a1-3)[Man(a1-6)]Man(a1-6)]Man(b1-4)GlcNAc(b1-4)GlcNAc
# In short: as §1
# [9] = molecular target: Man(a1-2)Man(a1-3)[Man(a1-2)Man(a1-6)[Man(a1-3)]Man(a1-6)]Man(b1-4)GlcNAc(b1-4)GlcNAc
# In short: as §1
# [10] = molecular target: Man(a1-2)Man(a1-3)[Man(a1-3)[Man(a1-6)]Man(a1-6)]Man(b1-4)GlcNAc(b1-4)GlcNAc
# In short: as §1
# [11] = molecular target: Man(a1-3)Man
# In short: as §1
# [12] = molecular target: Man(a1-3)Man(a1-6)[Man(a1-3)]Man(b1-4)GlcNAc(b1-4)GlcNAc
# In short: as §1
# [13] = molecular target: Man(a1-3)Man(b1-4)GlcNAc
# In short: as §1
# [14] = molecular target: Man(a1-3)[Man(a1-6)]Man
# In short: as §1
# [15] = molecular target: Man(a1-3)[Man(a1-6)]Man(a1-6)Man(b1-4)GlcNAc(b1-4)GlcNAc
# In short: as §1
# [16] = molecular target: Man(a1-3)[Man(a1-6)]Man(a1-6)[Man(a1-3)]Man
# In short: as §1
# [17] = molecular target: Man(a1-3)[Man(a1-6)]Man(a1-6)[Man(a1-3)]Man(b1-4)GlcNAc(b1-4)GlcNAc
# In short: as §1
# [18] = molecular target: Man(a1-3)[Man(a1-6)]Man(b1-4)GlcNAc(b1-4)GlcNAc
# In short: as §1
# [19] = molecular target: Man(a1-3)[Man(a1-6)]Man(b1-4)GlcNAc(b1-4)[Fuc(a1-6)]GlcNAc
# In short: as §1
# [20] = molecular target: Man(a1-6)Man
# In short: as §1
# [21] = molecular target: Man(a1-6)Man(b1-4)GlcNAc(b1-4)GlcNAc
# In short: as §1
# [22] = molecular target: Man(b1-4)GlcNAc
# In short: as §1
# [23] = molecular target: Neu5Ac(a2-3)Gal(b1-4)GlcNAc(b1-2)Man(a1-3)[Neu5Ac(a2-3)Gal(b1-4)GlcNAc(b1-2)Man(a1-6)]Man(b1-4)GlcNAc(b1-4)[Fuc(a1-6)]GlcNAc
# In short: as §1
# [24] = molecular target: Neu5Ac(a2-6)Gal(b1-4)GlcNAc(b1-2)Man(a1-3)[Neu5Ac(a2-6)Gal(b1-4)GlcNAc(b1-2)Man(a1-6)]Man(b1-4)GlcNAc(b1-4)GlcNAc
# In short: as §1
# [25] = molecular target: Xyl(b1-2)[Man(a1-3)][Man(a1-6)]Man(b1-4)GlcNAc(b1-4)GlcNAc
# In short: as §1
# [26] = molecular target: Xyl(b1-2)[Man(a1-3)][Man(a1-6)]Man(b1-4)GlcNAc(b1-4)[Fuc(a1-3)]GlcNAc
# In short: as §1
binder,measurement,setting,value
"ZG16p (Homo sapiens), O60844 (protein) ARSSSYSGEYGGGGGKRFSHSGNQLDGPITALRVRVNTYYIVGLQVRYGKVWSDYVGGRNGDLEEIFLHPGESVIQVSGKYKWYLKKLLFVTDKGRYLSFGKDSGTSFNAVPLHPNTVLRFISGRSGSLINAIGLHWDVYPSSCSRC",glycan array binding signal (z-score),[1],5.03
same,glycan array binding signal (z-score),[2],-0.565
same,glycan array binding signal (z-score),[3],-0.218
same,glycan array binding signal (z-score),[4],0.768
same,glycan array binding signal (z-score),[5],-0.565
same,glycan array binding signal (z-score),[6],-0.165
same,glycan array binding signal (z-score),[7],0.128
same,glycan array binding signal (z-score),[8],-0.403
same,glycan array binding signal (z-score),[9],-0.565
same,glycan array binding signal (z-score),[10],-0.565
same,glycan array binding signal (z-score),[11],-0.514
same,glycan array binding signal (z-score),[12],-0.482
same,glycan array binding signal (z-score),[13],-0.565
same,glycan array binding signal (z-score),[14],-0.565
same,glycan array binding signal (z-score),[15],-0.565
same,glycan array binding signal (z-score),[16],-0.333
same,glycan array binding signal (z-score),[17],-0.425
same,glycan array binding signal (z-score),[18],-0.522
same,glycan array binding signal (z-score),[19],-0.565
same,glycan array binding signal (z-score),[20],-0.565
same,glycan array binding signal (z-score),[21],-0.565
same,glycan array binding signal (z-score),[22],-0.565
same,glycan array binding signal (z-score),[23],-0.565
same,glycan array binding signal (z-score),[24],-0.565
same,glycan array binding signal (z-score),[25],-0.236
same,glycan array binding signal (z-score),[26],-0.498
